Test results from PubChem BioAssay AID1963576 (National Center for Advancing Translational Sciences (NCATS), 2024).
The whole screen tested about 46,000 compounds, of which about 60 (0.1%) were called active. Another 3% or so got no clear call; they are omitted. Calls come from the whole dose curve; as a rule, active = well fitted inhibition curve with a large enough effect; inconclusive = small, poorly fitted or top-dose-only effect; inactive = no such curve, though single readings can be large or run the other way. This is one part of the list.

Test: Primary qHTS assay for Inhibitors of ovarian cancer metastasis using an organotypic tumor microenvironment (TME) model.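 For activity change, negative = inhibition: plate controls were DMSO wells for no effect and tomatine positive control wells for full effect.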 Note: nearly all actives have a fitted effect of over 65% in size.
Conditions: SKOV3ip1-GFP adhesion/invasion on 3D omental model, fluorescence; series mostly up to 45.8 µM; activity change, negative = inhibition: at the top concentration
In short: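 qHTS, 4-pt dose (0.36-46 umol/L); SKOV3ip1-GFP, 1,200 cells/well, no FBS; primary omental fibroblast/mesothelial co-culture 48 h pre-grown; 2 h RT + 16 h 37 C; PBS wash, 4% PFA; GFP count 488/509 nm.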

Activity change, negative = inhibition, inactive:
Cc1ccc(Cl)cc1NC(=O)CSc1nc2c(c(=O)[nH]1)CN(Cc1ccccc1)CC2 -3.56%
COc1ccc(C(=O)Oc2cc(-c3ccc4c(c3)OCO4)cc(=O)c3c(C)oc(C)c23)cc1 -5.94%
O=C(CSc1ncc(CO)n1Cc1ccc(Cl)cc1)NCc1ccc(F)cc1 -9.2%
COc1ccc(CNC(=O)c2cc3cccc4c3n2CC(C)S4)c(OC)c1 (configuration not stated) -16.5%
Cc1cccc(NC(=O)CSc2nc(=O)n(Cc3ccccn3)c3c2CCC3)c1C 1.91%
Cc1ccc(-c2onc(C)c2C)cc1S(=O)(=O)Nc1ccc(Cl)cn1 0.245%
Cc1ccccc1C(=O)Nc1ccc(C(=O)OCc2cc(=O)n3nc(C(C)C)sc3n2)cc1 2.51%
CCOC(=O)c1ccc(NC(=O)CCc2c(C)nc3c(-c4ccc(F)cc4)c(C)nn3c2C)cc1 -2.77%
CCOc1ccc2nc(NC(=O)c3cc(=O)c4cc(C)cc(C)c4o3)sc2c1 5.63%
CSc1ncc(C(=O)Nc2ccc(C(C)=O)cc2)c(-c2ccccc2)n1 2.73%
COc1ccc(NC(=O)c2cn3c4c(ccc(Cl)c4c2=O)OC(C)C3)cc1OC (configuration not stated) 5.79%
Cc1ccc(NC(=O)CC(C)S(=O)(=O)c2ccc3c(c2)NC(=O)CO3)cc1C (configuration not stated) 6.02%
CCOc1ccc(-c2cn3c(n2)sc2cc(C(=O)NC4CCCc5ccccc54)ccc23)cc1 (configuration not stated) -0.553%
N#CC(=C(N)Sc1ccccc1N)C(C#N)=C(N)Sc1ccccc1N 0.988%
Cc1oc2ccc(O)c(CN3CCCC3)c2c1C(=O)Nc1cccc(Cl)c1C 1.41%
COc1ccc(Nc2cc(C(=O)NCc3ccccc3)c3ccccc3n2)c(OC)c1 4.52%
COc1ccc2c(CNCCc3ccccc3)c(C(=O)O)n(Cc3cccc(F)c3)c2c1 -8.18%
Cc1cccc(NC(=O)CSc2nc3c(oc4ccccc43)c(=O)n2-c2ccc(F)cc2)c1 36.9%
COc1ccc(-c2noc(-c3cccc(OC)c3OC)n2)cc1 -1.65%
COc1ccc(CNC(=O)C2Cc3cc(S(=O)(=O)N4CCCCCC4)ccc3N2C(C)=O)cc1 (configuration not stated) 7.38%
Cc1cc(-c2ccc(S(=O)(=O)Nc3ccc(Br)c(C)c3)s2)on1 -3.84%
COc1ccc(Cl)cc1NC(=O)Cn1cc2c(n1)CCC(C)C2 (configuration not stated) -4.59%
O=c1c2cnn(-c3ccc(F)cc3)c2ncn1Cc1ccc(F)cc1 -1.24%
Cc1cccc(NC(=O)Cc2ccc(-n3c(C)nc4cccnc43)cc2)c1C -8.37%
COc1ccc(CCN2C(=O)N(c3ccccc3)C(=O)C2CC(=O)Nc2ccccc2)cc1 (configuration not stated) -17.9%
Cc1ccc(-c2nc(C)c(CCNC(=O)C(=O)Nc3ccc4c(c3)OCO4)s2)cc1 -10.6%
N#Cc1c[nH]n2c(NC3CCCCC3)c(-c3cccc(Cl)c3)nc12 2.79%
CCc1ccc(NC(=O)c2cc3c([nH]c2=O)CC(C)(C)CC3=O)cc1 -11.8%
CC(=O)c1cccc(NC(=O)c2cc3nc(-c4ccc(Br)cc4)cc(C(F)(F)F)n3n2)c1 7.76%
COc1ccc(CNC(=O)c2ccc(-c3nc(CSc4ccccc4)c(C)o3)cc2)c(OC)c1 4.81%
Cc1nc(N2CCOCC2)c2c(C(=O)N3CCN(c4cccc(C)c4C)CC3)c(C)oc2n1 -2.96%
COc1cc(C(=O)N2CC(=O)Nc3ccc(C)cc3C2c2ccc(F)cc2)cc(OC)c1OC (configuration not stated) 7.92%
CCOC(=O)C1CCN(CCC(=O)Nc2ccc(OC)cc2)CC1 5.02%
CCCN1C(=O)C2(c3ccccc31)c1c(oc3ccc(C)cc3c1=O)C(=O)N2CCOC (configuration not stated) 24.6%
Cc1ccc(C)c(NC(=O)NCc2ccc3c(c2)CCN3C(=O)c2ccccc2)c1 2.77%
COC(=O)c1ccccc1NC(=O)Cn1c(=O)n(CCCC(=O)NCCc2ccc(OC)c(OC)c2)c(=O)c2ccccc21 -5.67%
Cc1cc(C)c(NC(=O)CCC(=O)N2Cc3ccccc3Oc3ncccc32)c(C)c1 -17.4%
CC(C)(N)c1ccc(-c2nc3ccccc3nc2-c2ccccc2)cc1 -1.96%
COc1cc2ncn(-c3cc(OCc4ccccc4C(F)(F)F)c(C(N)=O)s3)c2cc1OC 5.48%
COc1ccc(S(=O)(=O)NCc2ccc(C(=O)NCc3ccccc3)cc2)cc1 3.89%
CCCOc1ccc(C2c3c(oc4ccccc4c3=O)C(=O)N2c2nc(C)c(C(=O)OCC)s2)cc1 (configuration not stated) -6.55%
CC(C)c1ccc(NC(=O)C2(C)Cc3ccccc3C(=O)O2)cc1 (configuration not stated) 6.57%
CC(=O)c1ccc(N2CCN(C(=O)c3ccc(Cn4c(=O)[nH]c5ccccc5c4=O)cc3)CC2)cc1 -6.96%
O=C(c1ccccc1)c1ccc2nc(Nc3cc(Cl)ccc3O)c3nncn3c2c1 5.9%
CC(C)C(NS(=O)(=O)c1cccc2cccnc12)C(=O)Nc1ccc(OC(F)(F)F)cc1 (configuration not stated) -8.52%
CN1c2cc(O)c(N=NC(N)=O)cc2CC1S(=O)(=O)O (configuration not stated) 9.23%
O=C(CCn1cnc2ccccc2c1=O)NCc1ccccc1 -5.26%
COc1cccc(CNC(=O)c2cc(-c3cccc(OC)c3)n[nH]2)c1 -3.34%
O=S(=O)(c1ccc2[nH]c3c(c2c1)CCCCC3)N1CCN(c2ccccc2)CC1 1.73%
CCN(CC)CCCNC(=O)Cn1nc(N2CCN(c3ccccc3OC)CC2)ccc1=O 0.439%
CN1C(=O)Cc2cc(S(=O)(=O)CCC(=O)Nc3ccccc3)ccc21 9.02%
COc1cc(OC)c(N(C)C(=O)c2nn(C)c3c2CSc2ccccc2-3)cc1Cl -2.53%
COc1ccc(Cl)cc1NC(=O)CN(C)S(=O)(=O)c1ccc(Br)s1 -5.12%
CCCCOc1ccc(S(=O)(=O)N2CCN(c3ccccc3OCC)CC2)cc1 -5.62%
CCc1ccc(S(=O)(=O)Nc2ccc(-c3ccc(N4CCCCCC4)nn3)cc2)cc1 2.85%
CCOc1ccccc1NC(=O)c1sc(-n2nc(C)c(CCC(C)C)c2C)nc1C -1.97%
O=C(Nc1cccc(Cl)c1)Nc1ccccc1OCc1cc(=O)n2ccccc2n1 -5.93%
C#CCN[C@@H]1CCc2ccccc21 2.1%
COCCCNC(=O)CCC(=O)N1Cc2ccccc2Oc2ncccc21 0.649%
Cc1cc2c(c3oc(=O)c4ccccc4c13)CN(Cc1ccc(F)cc1)CO2 -5.86%
CCC1CCCCN1CCCNC(=O)CN1C(=O)CSc2ccc(S(=O)(=O)N3CCC(C)CC3)cc21 (configuration not stated) -19.2%
Cc1cc(C)c2oc(-c3cccc(NC(=O)c4ccco4)c3)nc2c1 -15.1%
COc1cccc(C(=O)Nc2c(C(=O)NC(C)(C)C)oc3ccccc23)c1 -0.658%
C1COC(NC(C2CC2)C2CC2)=N1 5.08%
Cc1ccc(CNC(=O)CN(c2ccc(Cl)cc2Cl)S(=O)(=O)c2ccccc2)cc1 -7.2%
CN(C)c1ccc(CNC(=O)CN(C)S(=O)(=O)c2ccc3c(c2)c(=O)n(C)c(=O)n3C)cc1 -0.615%
O=C(Cn1ncc2c(=O)oc3ccccc3c21)NCc1ccccc1Cl -4.08%
CCc1cccc(NC(=O)Cn2c(=O)n(CCc3ccc(OC)c(OC)c3)c(=O)c3ccccc32)c1 7.5%
O=C(Cn1ncc2c3ccccc3n(Cc3ccccc3F)c2c1=O)NCCc1ccc(Cl)cc1 17.9%
COc1cc(OC2CCN(C)CC2)ccc1Nc1ncc2c(n1)n(C1CCCC1)c(=O)n2C 18%
COc1ccc(CN2COc3ccc4c(-c5ccccc5)cc(=O)oc4c3C2)cc1 7.63%
COc1ccc(OC)c(NC(=O)Cn2cnc3c(oc4ccccc43)c2=O)c1 1.68%
Cc1ccccc1Nc1nnc(-c2ccc(C)c(S(=O)(=O)N3CCOCC3)c2)c2ccccc12 15.1%
CN1CCN(c2ncc(-c3cc(Cl)cc(Cl)c3Cl)c(N)n2)CC1 3.27%
CCc1ccc(NC(=O)c2cc3sc(Cl)cc3n2C)cc1 2.61%
CC1=C(C(=O)Nc2ccc(C)cc2C)C(c2ccc(Cl)cc2)n2nc(C(=O)OC(C)C)nc2N1 (configuration not stated) 4.62%
CC(C)CC(=O)NCc1nc2cccnc2n1Cc1ccccc1 12.7%
CSc1cccc(-c2nnc(NC(=O)c3ccc4c(c3)OCCO4)o2)c1 1.3%
CCOc1ccc(NC(=O)C2CCN(S(=O)(=O)c3cc(-c4noc(C)n4)ccc3C)CC2)cc1 2.65%

outcome, inactive:
CCOc1ccc(NC(=O)N(C(C)C)C2CCN(C(C)=O)CC2)cc1
COc1ccc(NC(=O)C2Cc3ccccc3N2C(=O)c2ccccc2)cc1OC (configuration not stated)
COc1ccc(N(Cc2cccs2)C(=O)COc2cc(C)c(Cl)c(C)c2)cc1
O=S(=O)(c1ccc2nc(N3CCN(c4ccccc4)CC3)ccc2c1)N1CCCCC1
CSc1nnc2[nH]c(=O)cc(C)n12
Cc1ccc2c(c1)-c1c(cnn1CC(=O)N1CCN(c3cc(Cl)ccc3C)CC1)CO2
CCCSCCCNC(=O)CN1C(=O)COc2ccc(S(=O)(=O)N3CCC(C)CC3)cc21
Cc1cccc(C)c1NC(=O)c1oc2c(c1C)-c1nn(Cc3ccccc3)cc1CC2
O=C(NCC(c1ccccc1)c1ccccc1)c1nn(-c2ccccc2Cl)nc1CO
Cc1ccc(Cl)cc1N1CCN(C(=O)c2ccc3c(c2)N(Cc2ccccc2F)C(=O)c2ccccc2S3(=O)=O)CC1
Cc1nc2c(C(=O)N(C)Cc3ccccc3)c[nH]n2c(=O)c1Cc1ccc(Cl)cc1
CCc1cccc2sc(N3CCN(C(=O)c4cc5ccccc5cc4OC)CC3)nc12
Cc1ccc(CCNC(=O)Cn2c(-c3cccs3)cc3cc(F)ccc32)cc1
Cc1ccc(CNC(=O)Cn2ccn(-c3ccc(C)c(C)c3)c(=O)c2=O)cc1
COc1ccc(CC(=O)NCc2ccc3c(c2)CCN3C(=O)c2ccc(C)cc2)cc1OC
CCOC(=O)c1c(C)[nH]c(C)c1S(=O)(=O)N1CCCC(C(=O)Nc2ccc(OC)c(Cl)c2)C1 (configuration not stated)
Cc1cccc(N2CCN(C(=O)C3CCN(S(=O)(=O)c4cccs4)CC3)CC2)c1C
O=C(Cn1cnc(S(=O)(=O)N2CCCC2)c1)Nc1ccc(OC(F)(F)F)cc1
